Reference: the supplement of paper PMC5499739
In all, about 16,000 sequences were measured (“Z-score”: median about -0.37, highest 2% from about 3.2 on). This is one part of the list.

tested on: RBM10 RRM1-ZnF (GST-tagged construct); assay: RNAcompete 7-mer binding Z-score; higher = stronger binding preference
Procedure, shortened: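 GST-tagged RBM10 constructs (20 pmol) were mixed with a designed pool of 241 399 RNAs up to 41 nt (1.5 nmol), transcribed from microarray-derived DNA templates. Mixing was in 1 ml Hepes pH 7.8 buffer with KCl, NaCl, glycerol, DTT, BSA and glutathione Sepharose beads. Binding ran 30 min at 4°C, followed by four 2-min washes at 4°C, and bound RNA was identified by microarray hybridisation. Each heptamer motif received a one-sided Z-score for enrichment across probes containing it.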

Row | Sequence | RNAcompete 7-mer binding Z-score
1 | CGGACGG | 1.32
2 | CAAUAGA | 0.0463
3 | GGACAAA | 0.988
4 | CGCCACC | -0.0967
5 | GAAGGCA | 1.7
6 | UUGUUGG | 0.81
7 | GCGCGAG | 0.413
8 | UUCAGCA | -0.402
9 | AUUCCCC | -0.555
10 | GGUGUGU | 1.7
11 | UCCUUGG | -0.243
12 | CCUGAAU | -0.707
13 | AAGCUGC | -0.425
14 | GCGGAGC | 1.01
15 | AGUGCUG | 0.322
16 | AAUGAUG | 0.348
17 | GCCAUAU | -0.594
18 | ACUGAAA | -0.402
19 | AAAUUUC | -0.746
20 | GCCUGCU | -0.724
21 | UUAGCAC | -0.435
22 | CAGACUG | -0.0999
23 | GAAGUCA | -0.139

Row | Sequence | RNAcompete 7-mer binding Z-score
24 | GUAUUUC | -0.756
25 | CAGCACG | -0.0739
26 | CAAACGU | -0.438
27 | AUCUAAU | -0.659
28 | UGGAGGU | 2.84
29 | GUGGUUA | 2.45
30 | GGCAUCC | -0.162
31 | UACGACG | -0.272
32 | GCCGACG | -0.035
33 | AGGACGG | 2.1
34 | UCGAUGG | 0.923
35 | ACAAACC | -0.746
36 | GCCACAA | -0.542
37 | UACUUAU | -0.694
38 | AGGCCUA | -0.607
39 | CAAAAUA | -0.565
40 | UGCCACU | -0.698
41 | GGCCUGC | -0.428
42 | UUGACUC | -0.659
43 | UGAAUUA | -0.155
44 | GAGAAGA | 1.22
45 | ACUCCUA | -0.75
46 | GCCCACC | -0.581

Row | Sequence | RNAcompete 7-mer binding Z-score
47 | UUAUAGA | -0.324
48 | GUAGAAA | 1.03
49 | ACGUUCC | -0.685
50 | CAGUCGA | -0.269
51 | CUUAUAG | -0.555
52 | AAUCAAG | -0.0187
53 | UACGUUC | -0.694
54 | GGUUGUC | 0.4
55 | ACACGGU | 0.417
56 | CCGAGCU | -0.629
57 | AUAGCAC | -0.301
58 | AGGUCCC | -0.467
59 | CUCAUCG | -0.636
60 | UGGAGUG | 3.08
61 | GUUGGGA | 3.15
62 | AAUCGCG | -0.402
63 | CUAAGGU | 0.27
64 | UGAUCGG | 0.849
65 | CCGACGG | 0.283
66 | AGCAUCC | -0.548
67 | GCUCAUA | -0.704
68 | ACGAUUA | -0.366
69 | CGCUUGG | -0.418

Row | Sequence | RNAcompete 7-mer binding Z-score
70 | UCGUCAC | -0.34
71 | GGUAUCG | 0.868
72 | ACCUACC | -0.685
73 | AUUACUU | -0.704
74 | AACUCUU | -0.932
75 | CCGUAAA | -0.688
76 | AGUAUGC | -0.0252
77 | GGAGCCC | 0.478
78 | GUCAGCC | -0.448
79 | AAACAGU | -0.337
80 | AACCGCG | -0.353
81 | GCACCUC | -0.409
82 | GGAAGAU | 1.87
83 | GAGACGG | 1.8
84 | CUUGGGG | 1.44
85 | AUAGGAA | 2.16
86 | UAACACC | -0.694
87 | CGACGCC | -0.578
88 | UUAUACA | -0.542
89 | UGGGAUC | 1.57
90 | AUCGACC | -0.746
91 | CCUAACC | -0.746
92 | GCAGGUC | 0.339

Row | Sequence | RNAcompete 7-mer binding Z-score
93 | UGGCCGU | -0.337
94 | UUAAAGG | 0.813
95 | GCGAUCU | -0.604
96 | AGCCAGG | 0.514
97 | UGAUAAU | -0.314
98 | UGAUGAU | 0.16
99 | CCCGUCU | -0.737
100 | UUACCCG | -0.665
101 | CGUCGGA | 0.0235
102 | UUCUGGU | -0.262
103 | GUUCAAU | -0.412
104 | CAACCAU | -0.704
105 | GAUGAUU | 0.0138
106 | GAUAGUC | -0.279
107 | CGCGUGA | -0.155
108 | AUUCAAU | -0.552
109 | UACCGAG | -0.389
110 | UCUGUCG | -0.733
111 | GACCCUG | -0.438
112 | CAGGGCU | 0.699
113 | UGACGUU | -0.552
114 | AUGAUGA | 0.212
115 | GACUAUG | -0.0642

Row | Sequence | RNAcompete 7-mer binding Z-score
116 | ACUCUGC | -0.86
117 | CACGUGG | 0.566
118 | GAAAAAU | -0.145
119 | GAAGAUA | 0.55
120 | GCAACAU | -0.285
121 | AUAAUCU | -0.649
122 | CGUCGGC | -0.292
123 | UGAUGUU | -0.279
124 | GUUACCU | -0.402
125 | AGUGCAA | 0.176
126 | GCUCUUA | -0.707
127 | UUGAAGA | 0.128
128 | AUCUAAC | -0.681
129 | UCUCGCA | -0.646
130 | GACUCUC | -0.893
131 | UCCGAUG | -0.464
132 | GCAAAGA | 0.348
133 | CCACCAG | -0.386
134 | UUGCUUG | -0.746
135 | GUUAGGC | 1.03
136 | GGUCAGC | 0.755
137 | UAAGAGA | 0.391
138 | CCACGAC | -0.532

Row | Sequence | RNAcompete 7-mer binding Z-score
139 | UAUUAGC | -0.438
140 | GACGGAA | 1.4
141 | UAGUAGU | -0.035
142 | UACAUGG | 0.703
143 | GAUAAAC | -0.301
144 | CACUAGG | 0.235
145 | AGACCAA | -0.623
146 | UUGCCAC | -0.617
147 | UGUGGAU | 2.02
148 | UGAUCAC | -0.0869
149 | GAAUCCU | -0.763
150 | GGCUGUC | -0.207
151 | GCCCCCC | -0.175
152 | UGGUACG | 1.43
153 | CGGCUUU | -0.743
154 | GAUACUU | -0.571
155 | UUCUCCC | -0.685
156 | CGUACGC | -0.418
157 | CUACUGC | -0.513
158 | CGGGCCG | 0.228
159 | AUCUCUC | -0.919
160 | GAGCCGU | -0.522
161 | GUUAAUC | -0.217

Row | Sequence | RNAcompete 7-mer binding Z-score
162 | UCGCCUG | -0.542
163 | UUUACGC | -0.837
164 | ACCAGCC | -0.672
165 | GUCUCUU | -0.558
166 | ACGGGUG | 3.39
167 | CUCCUUG | -0.642
168 | AAACCCA | -0.701
169 | GGGAGUC | 1.77
170 | UUUUGCC | -0.834
171 | GACCCCA | -0.662
172 | UUAUGAU | -0.353
173 | CGAGAAG | 0.495
174 | UCGGGAC | 0.553
175 | UUACUUG | -0.535
176 | AAGUUUC | -0.808
177 | CUCGCAC | -0.587
178 | AAAUGCA | -0.184
179 | AGGGAGC | 2.12
180 | CAUCAUA | -0.532
181 | CUUCCGC | -0.743
182 | UAGAGAG | 0.842
183 | GCGGCCU | -0.327
